The campaign covered roughly 310,000 compounds. About 2,200 (0.71%) showed an effect of 50% or more. The effect is printed as a negative number. This is one part of the list.
target: human ether-à-go-go-related gene (hERG) potassium channel (human, UniProt Q12809); assay: primary screen, population patch clamp on CHO cells stably expressing hERG
Sequence (Q12809 whole entry, looked up): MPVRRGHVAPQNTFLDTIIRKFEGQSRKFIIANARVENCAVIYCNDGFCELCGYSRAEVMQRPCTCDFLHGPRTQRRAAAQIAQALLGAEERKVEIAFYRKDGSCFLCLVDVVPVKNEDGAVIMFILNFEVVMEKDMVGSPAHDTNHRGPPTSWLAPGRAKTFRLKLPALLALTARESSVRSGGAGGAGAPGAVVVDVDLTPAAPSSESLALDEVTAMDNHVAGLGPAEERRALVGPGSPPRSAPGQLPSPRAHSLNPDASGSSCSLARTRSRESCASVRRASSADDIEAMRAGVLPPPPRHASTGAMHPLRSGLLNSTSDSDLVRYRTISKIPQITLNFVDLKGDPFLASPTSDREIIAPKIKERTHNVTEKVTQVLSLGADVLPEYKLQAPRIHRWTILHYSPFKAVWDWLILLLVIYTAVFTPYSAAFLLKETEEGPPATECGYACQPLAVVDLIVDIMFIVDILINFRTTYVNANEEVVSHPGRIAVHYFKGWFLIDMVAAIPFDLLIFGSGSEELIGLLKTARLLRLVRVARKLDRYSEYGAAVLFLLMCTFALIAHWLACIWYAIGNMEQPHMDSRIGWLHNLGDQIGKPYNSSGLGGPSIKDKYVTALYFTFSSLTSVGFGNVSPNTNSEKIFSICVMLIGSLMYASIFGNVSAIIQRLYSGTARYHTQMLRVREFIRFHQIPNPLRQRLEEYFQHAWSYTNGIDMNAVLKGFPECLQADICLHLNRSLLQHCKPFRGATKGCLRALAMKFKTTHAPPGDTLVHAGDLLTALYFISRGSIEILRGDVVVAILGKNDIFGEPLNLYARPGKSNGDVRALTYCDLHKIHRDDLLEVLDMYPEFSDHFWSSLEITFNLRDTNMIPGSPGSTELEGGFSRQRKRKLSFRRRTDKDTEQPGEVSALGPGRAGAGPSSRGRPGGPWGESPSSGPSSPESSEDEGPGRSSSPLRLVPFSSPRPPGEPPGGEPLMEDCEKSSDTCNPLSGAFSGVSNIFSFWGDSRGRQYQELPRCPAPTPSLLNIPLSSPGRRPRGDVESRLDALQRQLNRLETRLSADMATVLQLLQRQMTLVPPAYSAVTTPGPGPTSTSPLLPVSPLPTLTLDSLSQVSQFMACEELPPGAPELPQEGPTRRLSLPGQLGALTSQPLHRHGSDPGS

| SMILES | hERG current change (%, negative = inhibition) at 1uM [%] |
| --- | --- |
| CCN1CCN(C(=O)c2cnn3c(C(F)F)cc(-c4ccc(C)cc4)nc23)CC1 | -3.12 |
| CCOC(=O)/C(C#N)=C\c1cc(OC)c(OC)cc1[N+](=O)[O-] | 17.1 |
| Cc1c(CC(=O)NCCC(=O)O)c(=O)oc2cc3oc4c(c3cc12)CCCC4 | 22.8 |
| COc1cccc(NC(=O)CN(C)C(=O)c2ccc(S(=O)(=O)Nc3ccccc3C)cc2)c1 | 3.85 |
| Cc1cccc(N2C(=O)NC(=O)/C(=C\c3cccn3-c3ccc(Cl)cc3)C2=O)c1 | 1.43 |
| O=C(COc1ccc(Cl)cc1Cl)NNC(=S)NC(=O)c1ccco1 | 10.8 |
| O=C(NCCN1CCOCC1)C1CCN(S(=O)(=O)N2CCCC2)CC1 | 11.7 |
| CS(=O)(=O)c1ccc(N2CCN(c3ccccn3)CC2)c([N+](=O)[O-])c1 | -13.3 |
| CCC(C)NC(=O)c1csc2c1CCCCC2 (stereo not drawn) | 16.1 |
| Clc1ccccc1OCCCCn1ccnc1 | 2.87 |
| O=C(Cc1cccc2ccccc12)NCCc1ccccc1 | 11.1 |
| O=C(O)c1ccc2c(c1)C(=O)N(Cc1ccccc1)C2=O | 4.17 |
| CCOc1ccccc1N/C(=C(/C(Cl)=C(Cl)Cl)[N+](=O)[O-])n1cncn1 | 2.1 |
| O=C(NN=C1CCCC1)C1COc2ccccc2O1 (stereo not drawn) | 12.3 |
| COc1ccc2nc(-c3ccco3)c(-c3ccco3)nc2c1 | 13.7 |
| CC1CCC2(CC1)SCC(=O)N2c1ccc(F)cc1 (stereo not drawn) | 9.6 |
| Cc1nn(-c2ccccc2)c(C)c1C(=O)OCC(N)=O | 12.2 |
| Cc1ccc(C(=O)ON=C2CCN(c3ccc([N+](=O)[O-])cc3)CC2)cc1 | -21.2 |
| CCSC1=NCCN1C(=O)c1c(-c2ccccc2Cl)noc1C | 7.53 |
| O=C(c1ccc(Oc2cc(Cl)cc(Cl)c2)o1)N1CCCCC1 | -3.92 |
| Cc1ccc(C2CC2c2n[nH]c(=S)n2-c2cccc(C)c2)cc1 (stereo not drawn) | 11.4 |
| O=C(C1CCCN(S(=O)(=O)c2ccccc2[N+](=O)[O-])C1)N1CCCC1 (stereo not drawn) | 3.58 |
| CCOC(=O)C1C(=O)OC2(CCCC2)C1C(=O)OCC (stereo not drawn) | -6.03 |

| SMILES | hERG current change (%, negative = inhibition) at 1uM [%] |
| --- | --- |
| Cc1cccn2cc(-c3ccc(S(=O)(=O)N4CCCCC4)cc3)nc12 | 13.5 |
| CCOC(=O)c1ccc(-n2c(CCC(=O)O)ccc2-c2ccccc2)cc1 | 9.49 |
| CC1(C)Cc2c(sc3nc(=S)[nH]c(N)c23)CO1 | 17.6 |
| CCN(CC)CCN1C(=O)c2ccccc2NC1c1ccccc1F (stereo not drawn) | -18.6 |
| CCOC(=O)Cc1csc(NC(=O)Cc2ccccc2[N+](=O)[O-])n1 | 15 |
| Cc1ccc(S(=O)(=O)N(C(=O)c2ccncc2)c2ccc(OC(=O)c3ccncc3)cc2)c(C)c1 | 1.2 |
| CCOc1cc(/C=N/NC(=O)CSc2nncn2C)ccc1OCC(N)=O | 14.9 |
| CCOc1ncccc1C(=O)N1CCN(S(=O)(=O)c2ccc3ccccc3c2)CC1 | -2.89 |
| C=CCOC(=O)CN1C(=O)c2ccccc2C1=O | 10.1 |
| COc1ccc(/C=C(\C#N)C(=O)NCc2cccnc2)cc1OC | 8.84 |
| CCCCCNC(=O)c1ccc2c(c1)ncn2-c1ccc(OC)cc1 | -7.59 |
| COc1cccc(-n2c(C)nn(C)c2=O)c1 | 6.95 |
| CCCCn1c(N)c(N(CCOC)C(=O)c2cc(S(=O)(=O)N3CCOCC3)ccc2F)c(=O)[nH]c1=O | 9.13 |
| O=C(Nc1ccc(Cl)cn1)Nc1ccccc1F | 0.928 |
| Nc1c(-c2ccccc2)nnn1Cc1ccccc1 | 12.2 |
| Cc1ccc(OCC(=O)NNC(=O)c2ccc(-n3cncn3)c([N+](=O)[O-])c2)cc1 | 15.4 |
| O=C(O)CCC(=O)Nc1ccccc1N1CCOCC1 | 6.2 |
| CC(=O)N(C)c1cccc(-c2ccc3nnc(C)n3n2)c1 | 13.3 |
| O=C(c1ccc(N2CCCC2=O)cc1)N1CCN(c2ccccc2F)CC1 | 14.8 |
| Cc1cc(C)n(-c2nnc(SCC(=O)NC3CCCC3)c3ccccc23)n1 | 5.79 |
| Cc1ccc(N(CC(=O)NCc2ccc(Cl)cc2)S(C)(=O)=O)cc1 | 11.5 |
| COc1ccc(/C=N/c2c(-c3ccco3)nc3ccccn23)cc1OC | 8 |
